PMC4336329 (PLoS ONE, 2015)
Hit rate of the full screen: of about 310,000 compounds, about 14,000 (4.5%) showed an effect of 50% or more. The effect is printed as a negative number. The list shows a part of the results.

biological target: human ether-à-go-go-related gene (hERG) potassium channel (human, UniProt Q12809); assay: primary screen, population patch clamp on CHO cells stably expressing hERG
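Note: peak tail current of the secondary pulse compared with the same well before compound.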

human ether-à-go-go-related gene (hERG) potassium channel, sequence (Q12809 whole entry, looked up): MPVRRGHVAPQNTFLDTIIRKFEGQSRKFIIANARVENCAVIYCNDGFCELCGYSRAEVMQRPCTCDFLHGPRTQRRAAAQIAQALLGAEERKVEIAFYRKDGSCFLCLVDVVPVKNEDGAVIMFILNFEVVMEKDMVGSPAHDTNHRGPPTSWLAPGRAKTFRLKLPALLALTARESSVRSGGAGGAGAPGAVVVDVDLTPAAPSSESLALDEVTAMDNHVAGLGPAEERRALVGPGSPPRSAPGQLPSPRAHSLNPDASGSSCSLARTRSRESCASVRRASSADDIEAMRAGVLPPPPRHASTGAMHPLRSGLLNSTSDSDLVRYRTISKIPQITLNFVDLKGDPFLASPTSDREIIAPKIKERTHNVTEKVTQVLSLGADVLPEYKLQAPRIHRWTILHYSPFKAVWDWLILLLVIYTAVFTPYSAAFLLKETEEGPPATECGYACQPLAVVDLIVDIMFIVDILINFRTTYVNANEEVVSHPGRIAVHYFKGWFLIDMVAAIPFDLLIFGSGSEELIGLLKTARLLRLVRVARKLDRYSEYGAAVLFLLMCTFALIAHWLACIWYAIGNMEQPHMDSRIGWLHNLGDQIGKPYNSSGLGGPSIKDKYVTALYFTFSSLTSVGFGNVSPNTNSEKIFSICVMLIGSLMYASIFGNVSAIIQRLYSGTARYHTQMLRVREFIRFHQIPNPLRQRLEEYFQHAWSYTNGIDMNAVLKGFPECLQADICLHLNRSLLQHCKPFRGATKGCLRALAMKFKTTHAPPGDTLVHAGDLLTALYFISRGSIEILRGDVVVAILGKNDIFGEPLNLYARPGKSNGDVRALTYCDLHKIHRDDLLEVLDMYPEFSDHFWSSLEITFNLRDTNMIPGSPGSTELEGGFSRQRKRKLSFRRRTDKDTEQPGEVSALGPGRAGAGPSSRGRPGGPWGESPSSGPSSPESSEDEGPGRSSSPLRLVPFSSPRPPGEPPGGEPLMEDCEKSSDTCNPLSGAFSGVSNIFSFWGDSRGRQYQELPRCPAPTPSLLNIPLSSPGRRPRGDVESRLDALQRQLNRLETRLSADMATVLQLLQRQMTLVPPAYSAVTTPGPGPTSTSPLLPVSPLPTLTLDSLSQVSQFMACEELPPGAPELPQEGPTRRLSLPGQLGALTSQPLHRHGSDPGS

Row | SMILES | hERG current change (%, negative = inhibition) at 10uM
1 | Cc1cnc(NC(=O)CN2CCN(c3ccccn3)CC2)s1 | -5.39%
2 | COc1ccc(/C=C2\SC(=O)N(CCNC(=O)C3CC4C=CC3C4)C2=O)cc1 (stereo not shown) | -6.14%
3 | CC(C)CC1(C)NC(=O)N(CC(=O)Nc2ccc3c(c2)CCC3)C1=O (stereo not shown) | 6.59%
4 | COc1ccc(CCNC(=O)CSc2nnc(C(C)N(C)C)n2Cc2ccccc2)cc1OC (stereo not shown) | 4.41%
5 | CN(C)CC(C)(C)CNC(=O)C1CCN(CCCc2ccccc2)CC1.O=C(O)C(=O)O | 12.5%
6 | Cn1cnc([N+](=O)[O-])c1Cl | 6.55%
7 | O=C(C1=C(O)C(=O)N(CCN2CCOCC2)C1c1ccc([N+](=O)[O-])cc1)c1cccs1 (stereo not shown) | 26.2%
8 | COC(=O)C1=C(c2ccc(OCc3ccccc3)cc2)C[C@@H]2CC[C@H]1N2C(=O)NCc1ccc(N(C)C)cc1 | -21.8%
9 | O=[N+]([O-])c1ccn(-c2nc(-c3ccccc3)cc(C(F)(F)F)n2)n1 | -36.1%
10 | COc1ccc2cc3c(N)nn(C(=O)c4ccccc4Cl)c3nc2c1 | 14.2%
11 | COc1ccc(-c2csc(NC(=S)NC(=O)/C=C/c3ccco3)n2)cc1Br | 32.6%
12 | COc1cc2oc3ccccc3c2cc1N(CC(=O)N(C)C)S(=O)(=O)c1ccc(C)cc1 | 18%
13 | C[C@H]1CC[C@H]2C(=O)N[C@H](Cc3ccccc3)C(=O)N2[C@@H]1c1ccccc1 | 23.7%
14 | COc1ccc(-c2n[nH]c(=S)n2-c2cc(OC)ccc2OC)cc1 | 4.92%
15 | O=C(CSc1n[nH]c(=O)n1-c1ccccc1)Nc1ccccc1C(F)(F)F | 18.5%
16 | O=C(NCc1ccc(Cl)cc1)c1ccc(CNc2c(N3CCOCC3)c(=O)c2=O)cc1 | -0.41%
17 | Cc1ccc(C(=O)Nc2ccc(N3CCOCC3)cc2N2CCOCC2)cc1 | 3.11%
18 | CCC(C)NC(=O)c1ccc(NC(=O)C2CCCO2)cc1 (stereo not shown) | 7.95%
19 | Cc1ccc(CNC(=O)CCCn2nc(C)c3c(C)n(-c4ccccc4)nc3c2=O)cc1 | 5.48%
20 | CC1(c2nnc(Cc3ccccc3)o2)CC(c2ccccc2Br)=NO1 (stereo not shown) | -23.9%
21 | CCCCC(=O)Nc1ccc2c(c1)nc(CCN1CCOCC1)n2C | -0.213%
22 | Nc1ncnc2c1C1(CCCCC1)Cc1ccccc1-2 | -24.1%
23 | COc1ccc(CCNC(=O)CCC(=O)n2ncc3ccc(Cl)cc32)cc1OC | -8.04%
24 | COc1ccc(S(=O)(=O)N2CCCCCC2)cc1C(=O)NCCOc1ccc(C)cc1 | -21.9%
25 | CCOC(=O)C1(Cc2cccc(OC)c2)CCN(Cc2ccccc2OC)CC1 | -51.3%
26 | CCOC(=O)C1[C@H]2C(=O)N(CCCOC)C[C@]23C=C[C@H]1O3 (stereo partly shown) | 1.81%

Row | SMILES | hERG current change (%, negative = inhibition) at 10uM
27 | Cc1ccc(S(=O)(=O)NCCS(=O)(=O)N2CCN(c3ccccc3)CC2)cc1 | -1.5%
28 | CC(OC(=O)c1cccc(S(=O)(=O)N2CCN(C)CC2)c1)C(=O)Nc1ccc(C(N)=O)cc1 (stereo not shown) | 2.14%
29 | CCn1c(SCC(=O)OCc2ccccc2)nnc1-c1ccco1 | 5.76%
30 | Cn1c(C(=O)NN)cc2cc(Oc3ccccc3)ccc21 | -8.77%
31 | N#Cc1c(N2CCCC(O)C2)nc(N)c2c(N)nc3c(c12)CC(=O)N3C12CC3CC(CC(C3)C1)C2 (stereo not shown) | 16.5%
32 | CCN(CC(=O)NCc1ccc(F)cc1)CC(=O)Nc1cc(S(=O)(=O)N(C)C)ccc1C | -75.6%
33 | O=[N+]([O-])c1cccc(S(=O)(=O)Nc2ccc(S(=O)(=O)N3CCCC3)cc2)c1 | 2.95%
34 | NC(=O)c1ccc(NC(=O)Cn2c(=O)n(-c3ccccc3)c(=O)c3oc4ccccc4c32)cc1 | 5.82%
35 | O=c1c(OC2OC(CO)C(O)C(O)C2OC2OC(CO)C(O)C(O)C2O)c(-c2ccc(O)cc2)oc2cc(O)cc(O)c12 (stereo not shown) | 7.28%
36 | Nc1nc(SCCO)[nH]c(=O)c1NC(=O)c1ccccc1F | 21.5%
37 | CCN(CC)S(=O)(=O)c1ccc(C(=O)NCC(c2cccs2)N2CCOCC2)cc1.Cl (stereo not shown) | -1.42%
38 | CC(C)CC(=O)Nc1ccc(C(=O)CN2CCN(c3ccc(O)cc3)CC2)cc1 | -1.5%
39 | NC(=O)c1nn(-c2ccc(Cl)cc2Cl)c(=O)cc1O | 12.6%
40 | Cc1ccc(-c2nn3c(C)nnc3c3ccccc23)cc1S(=O)(=O)NC(C)(C)CO | -21.9%
41 | C/C(=N\Nc1ccc(Cl)c(C(=O)O)c1)c1cccc([N+](=O)[O-])c1 | 2.73%
42 | Cc1[nH]c2ccccc2c1CN1CCc2ccccc2C1 | -12.9%
43 | CCOc1ccc(NC(=O)C(C)N2C(=O)c3ccccc3C2=O)cc1 (stereo not shown) | 8.03%
44 | Cc1cc(C)nc(Sc2ncnc(N)c2[N+](=O)[O-])n1 | 6.79%
45 | Brc1cccc(OCCOCCn2ccnc2)c1.O=C(O)C(=O)O | -12.6%
46 | O=S(=O)(Nc1ccc(Br)cc1)c1cccc2nonc12 | 5.71%
47 | O=C(NCCN1CCOCC1)C(=O)c1c[nH]c2ccccc12 | 10.1%
48 | CC(=O)N1CCCc2cc(S(=O)(=O)N3CCCC(C(=O)N4CCN(c5cc(C)ccc5C)CC4)C3)ccc21 (stereo not shown) | -3.55%
49 | O=C1c2cccc3c([N+](=O)[O-])c(O)cc(c23)C(=O)N1Nc1ccccc1 | 5.98%
50 | CN(C)C(=O)CSc1nnc(NC(=O)CCc2ccccc2)s1 | -5.24%
51 | OC(C#CCN1CCCCCC1)(c1ccccc1)c1cccnc1 (stereo not shown) | -13%
52 | CCC(Sc1nc(N)c(NC(=O)c2ccc(OC)c(OC)c2)c(=O)[nH]1)C(=O)OC (stereo not shown) | -2.71%
